{"source": "PubChem BioAssay AID624417", "about": "(National Center for Advancing Translational Sciences (NCATS), 2012)", "note": "Out of some 410,000 compounds screened, about 6,400 (1.6%) were called active. Another 20% or so got no clear call; they are omitted. The call rests on the fitted dose curve; in most records, active means well fitted inhibition curve with a large enough effect; inconclusive means small, poorly fitted or top-dose-only effect; inactive means no such curve, though single readings can be large or run the other way. Where a structure was tested more than once in an assay, its records may differ in their call. The source holds more than one record for some entries. This is not the full list of results. An entry can have further records. Results that share an entry are repeats (runs, samples, wells, individuals or studies). What stands in brackets tells the records apart. The letters are not those of the source and start again with each entry. Potency means the concentration at half of the fitted maximal effect.", "data": [{"biological_target": "Glucagon-like peptide 1 receptor (Homo sapiens) (UniProt P43220)", "sequence (P43220 whole entry, looked up)": "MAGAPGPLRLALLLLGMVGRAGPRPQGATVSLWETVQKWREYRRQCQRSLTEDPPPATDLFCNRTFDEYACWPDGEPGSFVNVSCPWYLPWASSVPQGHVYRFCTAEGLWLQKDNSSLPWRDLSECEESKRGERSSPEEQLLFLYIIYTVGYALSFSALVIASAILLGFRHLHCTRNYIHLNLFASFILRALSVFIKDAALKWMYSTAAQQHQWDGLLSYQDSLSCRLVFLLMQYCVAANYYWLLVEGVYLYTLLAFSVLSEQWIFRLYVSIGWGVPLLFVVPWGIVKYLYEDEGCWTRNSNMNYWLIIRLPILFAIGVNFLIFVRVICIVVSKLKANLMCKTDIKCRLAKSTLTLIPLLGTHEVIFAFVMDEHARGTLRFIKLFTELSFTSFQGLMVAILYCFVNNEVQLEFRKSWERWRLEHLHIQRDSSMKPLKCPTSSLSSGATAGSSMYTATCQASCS", "test": "qHTS of GLP-1 Receptor Inverse Agonists (Inhibition Mode); further: nearly all actives have a fitted effect of over 55% in size", "conditions": "HEK293 GLP-1R CRE-luciferase, luminescence, 24 h, GLP-1R form is constitutively active; series mostly up to 38.3 µM", "source_text": "The overall goal of this project was to develop a novel assay for discovering small molecule ligands for class B1 G protein-coupled receptors (GPCRs). Very few agonists (or inverse agonists in inhibition mode) with generally weak activity for this entire group of physiologically important receptors are known to date. To establish proof-of-principle that this critical bottleneck can be overcome with a suitable screening approach, our studies focused on the class B1 receptor for glucagon-like peptide-1 (GLP-1R), a potential therapeutic target for diabetes and neurodegenerative disease. The assay was developed using a cell-based functional readout. Toward this goal, stably transfected HEK293 cell clones were established that co-express (i) a cAMP-responsive luciferase reporter gene, and (ii) constitutively active GLP-1R that upon ligand interaction inhibit (inverse agonists) the luciferase activity. […]\nSix ul of cell suspension (200 cells/uL in DMEM + 10% Nu serum + 1% pen-strep) is dispensed in a white solid 1536-well plate. […] A luminescence read is obtained on the PerkinElmer Viewlux after 12 min incubation at room temperature.", "values": [{"smiles": "CCC1CCCCN1CCCNC(=O)c1cc2c(Cl)nc3ccccc3c2s1", "note": "(stereo unspecified)", "Potency": "inactive [sample A] and active: 3.98 µM [sample B]"}]}]}
